# Data published in ChEMBL document CHEMBL4888484, “Replenishing the malaria drug discovery pipeline: Screening and hit evaluation of the MMV Hit Generation Library 1 (HGL1) against asexual blood stage Plasmodium falciparum ,using a nano luciferase reporter read-out” (2022).
# About 540 (0.36%) of roughly 150,000 compounds showed an effect of 50% or more. Some of the results follow.
# System: Plasmodium falciparum
# Experiment: Primary screen in NF54 nanoGlo assay, in single point, at 2uM, 72h; a lower Z score goes with more inhibition
# Type: functional, Erythrocyte
# Settings: timepoint 72 hour
Structure (SMILES),% Inhibition [%],Z score
O=C1[C@@H]2CCCN2C(=O)N1Cc1ccn(-c2ccc(F)cc2F)n1,-15,1.54
O=C(O)c1cccnc1CN1CCc2ccc(C(F)(F)F)cc2C1,-1,0.1
CN(CC(=O)NC1CCCCC1)C1CCCCC1,-12,1.65
O=C(Nc1cnccn1)C1CC2CCC1O2 (centres undefined),-3,0.24
CC(C)(C)c1ccc(OS(=O)(=O)c2c[nH]c(C(=O)N3CCCC3)c2)cc1,-13,1.68
Cc1nc(CCc2cn[nH]c2)n(-c2ccc(F)c(F)c2)n1,1,-0.18
Cn1cccc1CNc1nnc(CC2CCCC2)o1,-9,1.3
Cc1nnc(CN[C@@H](C)c2ccc(Cl)s2)s1,-13,1.31
CC[C@@]1(O)COC2(CN(C(=O)c3noc(C)c3Cn3cccn3)C2)C1,-11,1.67
CN(C[C@H]1CCCOC1)C(=O)Nc1nsc2ccccc12,-10,1.43
Cc1n[nH]c(C)c1[C@H](C)N(C)Cc1cn(C)nc1-c1ccc2c(c1)OCCO2,-2,0.35
CCn1ccnc1NC(=O)C1CC(F)(F)C1,-3,0.36
C[C@@H](c1ccco1)N(C)C(=O)NCCc1csc(N2CCCC2)n1,-6,0.59
CC(C)c1nnc(CNC2(c3noc(C4CC4)n3)CCCC2)o1,-3,0.33
O=C(c1cc(C2CC2)on1)N1CCc2ccccc2C1,-6,0.68
Cc1cnc(NC(=O)c2c(C)c(C)n[nH]c2=O)s1,2,-0.35
Cc1ccc(C(F)(F)C(=O)NCCC(=O)NS(C)(=O)=O)cc1,57,-7.27
COCc1nc(CN(C)CCc2scnc2C)no1,-2,0.25
Fc1ccccc1N1CCC(N2CCO[C@H](C(F)(F)F)C2)CC1,15,-2.02

Structure (SMILES),% Inhibition [%],Z score
O=C(NCc1ccccc1CN1CCC[C@@H]1CO)c1ccc(F)c2ccncc12,-1,0.14
CCCc1cc([C@@H]2CCCN2Cc2ccc(F)c(Br)c2)no1,-7,0.95
N#Cc1cncc(N2CC3CCC2C2CN(Cc4ccccc4)CC32)n1 (centres undefined),-7,1.41
CCn1cnnc1CNC(=O)c1ccncc1,-5,1
COc1cc(C(=O)Nc2ccc(C)c(N3CCCCC3=O)c2)cc(OC)c1OC,-4,0.66
C[C@@H](C(=O)Nc1cnn(C)c1C(F)F)c1cccc(O)c1,-8,1.53
CC(C)C1(NC(=O)CNC(=O)c2cscn2)CC1,-4,0.53
CN(CCC#N)C(=O)c1cnn(C(C)(C)C)c1,-11,1.58
CCN(CC(=O)Nc1ccc(NC(C)=O)cc1)C(=O)N(c1ccccc1)c1ccccc1,0,-0.08
CN(C(=O)Nc1ccc(-n2cnnn2)cc1)[C@@H]1CCN(Cc2ccccc2)C1,-7,0.87
CC(C)(C)c1csc(CN2CCC[C@H]2C(=O)O)n1,-5,0.77
NC(=NCCOc1ncc(Cl)cc1Cl)N1CCCCC1,-3,0.47
COCCOCCN(Cc1ccccc1)C(=O)c1cnc(-c2ccccc2Cl)s1,-12,1.87
OCC(Cc1ccccc1)NCCNC(CO)Cc1ccccc1 (centres undefined),1,-0.21
CC(=O)NCCn1ccnc1-c1ccccc1OCc1ccccc1,-17,2.45
CN(CC1CCCC1O)C(=O)NCCC1CCCO1 (centres undefined),-10,1.1
COc1cccc(CNC(=O)C(C)(C)S(C)(=O)=O)c1,-3,0.55
COc1ncc(CN(CCN(C)C)C2CCCCC2)cn1,10,-1.37
Fc1cccc(Cl)c1Cn1ncnc1Cc1cscn1,-5,0.98

Structure (SMILES),% Inhibition [%],Z score
CCO[C@H]1COC[C@@H]1NC(=O)c1nc2c(s1)CCCC2,-2,0.36
Fc1ccc2oc(N3CCC[C@@]4(CCOC4)C3)nc2c1,-12,1.89
Cc1cc(N(C)C[C@H](O)COc2ccc3c(c2)OCO3)nc(N)n1,5,-0.55
C[C@](O)(C1CCN(C(=O)c2ccc(-n3ccnn3)cc2)CC1)C(F)(F)F,-2,0.27
Nc1nc(N2CCC3(CC2)N=C(c2ccccc2)NC3=O)c2cn[nH]c2n1,-3,0.5
COc1ccc(-c2cn(-c3ccc(OC)cc3)c(=O)n2-c2ccccc2)cc1,-14,1.61
COCC1CCN(C(=O)N[C@H](c2nccn2C)C2CC2)CC1,-15,1.69
CCN(CC)[C@@]1(c2nnnn2C2CCCC2)CCN(C(=O)c2ccncc2)C1,-3,0.43
CCOCCC1(CNC(=O)Nc2ccn(C)n2)CCCC1,2,-0.18
CC(C)(C)n1ncc2c(=O)[nH]c(NCCc3ccoc3)nc21,-12,2.34
C[C@H](NC(=O)Nc1cccc(C(=O)N2CCN(C)CC2)c1)c1ccc(F)cc1,12,-2.32
CC1CCCN(C(=O)C2CCC2)C1CN (centres undefined),-3,0.43
O=C(NCC(=O)OC1CCCCC1)Nc1ccccc1C(F)(F)F,-2,0.17
C=C(C)[C@H]1OCC[C@H]1C(=O)NCC1CC(O)CN1Cc1ccccc1 (some centres undefined),-11,0.95
CCc1nc(CNC(=O)CCc2c[nH]c3cccc(C)c23)n[nH]1,-7,1.28
O=S(=O)(Cc1ccccc1)NC[C@H]1CCN(Cc2ccco2)C1,1,-0.13
CN1CCc2[nH]nc(C(=O)N3CCC(c4ccncn4)CC3)c2C1,6,-1.05
O=C(Nc1nc(C2CC2)cs1)N1CC(c2ccccc2F)C1,-1,0.09
Cc1cc(C(=O)NCC2(c3ccccn3)CC2)no1,-14,2.21
